B1: OR4K15 (parent)
chain: GUUAACGGUCAUAGGCCAUGGAAACUAGGAGCACCAUUUCGCUGCCAGUGAAGAAAUGAACAAAGAAAAUCUGGGCCAGGCAGGCAUCAAAAGAAAUAGUCUUGCGCUCAACCAGAAAGUCUGUAAUCAUUUUAAGGGUA

Read counts are not given, so values of variants with three or more changes are uncertain.

This data set covers variants of B1. Kind of data set: self-cleavage, relative activity (ratio to wild type); higher = more cleavage; in vitro, sequencing; the parent is a self-cleaving ribozyme.
As for GUUAACGGUCAUAGGCCAUGGAAACUAGGAGCACCAUUUCGCUGCCAGUGAAGAAAUGAACAAAGAAAAUCUGGGCCAGGCAGGCAUCAAAAGGAAUAGUCUUGCGCUCUACCAGAAGGUCUGUAAUCAUUUUAAGGGUA, the self-cleavage turned out to be 1.17.

As to GUUAACGGUCAUAGGCCAUGGAAACUAGGAGCACCAUUUCGCUGCCAGUGAAGAAAUGAACAAAGAAAAUCUGGGCCAGGCAGGCAUCAAAAGCAAUAGUCUUGCGCACAACCAGAAAGUCUGUAGUCAUUUUAAGGGUA, the self-cleavage stood at 0. With GUUAACGGUCAUAGGCCAUGGAAACUAGGAGCACCAUUUCGCUGCCAGUGAAGAAAUGAACAAAGAAAAUCUGGGCCAGGCAGGCAUCAAAAGAGAUAGUCUUGCGCUCUACCAGAAAGUCUGUAAUCGUUUUAAGGGUA the figure was 1.55; with GUUAACGGUCAUAGGCCAUGGAAACUAGGAGCACCAUUUCGCUGCCAGUGAAGAAAUGAACAAAGAAAAUCUGGGCCAGGCAGGCAUCAAAAGAGAUAGUCUUGCGCUCAACCAGAAAGUCUGUAAUAAUUCUAAGGGUA, 1.87. With GUUAACGGUCAUAGGCCAUGGAAACUAGGAGCACCAUUUCGCUGCCAGUGAAGAAAUGAACAAAGAAAAUCUGGGCCAGGCAGGCAUCAAAAGGAGUAGUCUUGCGCUCAACCAGAAAGUCUGUAAUCAUUCUAAGGGUA the figure was 0.75. With GUUAACGGUCAUAGGCCAUGGAAACUAGGAGCACCAUUUCGCUGCCAGUGAAGAAAUGAACAAAGAAAAUCUGGGCCAGGCAGGCAUCAAAAGGAAUAGUCUUGCGCUCAACCAGAAAGUCUGUGAUCAGUUUAAGGGUA the figure was 0.46; with GUUAACGGUCAUAGGCCAUGGAAACUAGGAGCACCAUUUCGCUGCCAGUGAAGAAAUGAACAAAGAAAAUCUGGGCCAGGCAGGCAUCAAAUGUAAUGGUCUUGCGCUCAACCAGAAAGCCUGUAAUCAUUUUAAGGGUA, 0.42.

Turning to GUUAACGGUCAUAGGCCAUGGAAACUAGGAGCACCAUUUCGCUGCCAGUGAAGAAAUGAACAAAGAAAAUCUGGGCCAGGCAGGCAUCAAAAGGAAUAGCCAUGCGCUCAACCAGAAAGUCUGUAAUCAUUUUAAGGGUA, the self-cleavage was 1.82.

Consider GUUAACGGUCAUAGGCCAUGGAAACUAGGAGCACCAUUUCGCUGCCAGUGAAGAAAUGAACAAAGAAAAUCUGGGCCAGGCAGGCAUCAAAAGGGAUAGUCUUGCGCUCAACCAGAAAGUCUGUAAUCAUUUUAAGGAUG, for which the self-cleavage turned out to be 1.94. Take GUUAACGGUCAUAGGCCAUGGAAACUAGGAGCACCAUUUCGCUGCCAGUGAAGAAAUGAACAAAGAAAAUCUGGGCCAGGCAGGCAUCAAAAGUAAUAGUCUUGCGCUCAUCCAGAAAGUCUGUAGUCAUUUUAAGGGUA: the self-cleavage was 0.04. As for GUUAACGGUCAUAGGCCAUGGAAACUAGGAGCACCAUUUCGCUGCCAGUGAAGAAAUGAACAAAGAAAAUCUGGGCCAGGCAGGCAUCAAAAGUAAUAGUCUUGCGCUCAACCAGAAAGUCUGUAACCAUUUCAAGGGUA, the figure is 0.53. As for GUUAACGGUCAUAGGCCAUGGAAACUAGGAGCACCAUUUCGCUGCCAGUGAAGAAAUGAACAAAGAAAAUCUGGGCCAGGCAGGCAUCAAAAGUAAUAGUCUUGCGCUCAACCAGAACGUCUGUAAUCAUUUUAAGGGUG, the figure is 0.58; as for GUUAACGGUCAUAGGCCAUGGAAACUAGGAGCACCAUUUCGCUGCCAGUGAAGAAAUGAACAAAGAAAAUCUGGGCCAGGCAGGCAUCAAAAGGAAUAGUCCUGCGCUCAACCAGAGAGUCUGUAAUCAUUUUAAGGGUA, 2.93; as for GUUAACGGUCAUAGGCCAUGGAAACUAGGAGCACCAUUUCGCUGCCAGUGAAGAAAUGAACAAAGAAAAUCUGGGCCAGGCAGGCAUCAAAAGGAAUAGUCUUGCGCCCAUCCAGAAAGUCUGUAAUCAUUUUAAGGGUA, 0.01. GUUAACGGUCAUAGGCCAUGGAAACUAGGAGCACCAUUUCGCUGCCAGUGAAGAAAUGAACAAAGAAAAUCUGGGCCAGGCAGGCAUCAAAAGGAAUAGUCUUGCGCUCAACCAGAAAGUCUGCAGUCAUUUUAAGGGUA: the self-cleavage amounted to 0.6.

As to GUUAACGGUCAUAGGCCAUGGAAACUAGGAGCACCAUUUCGCUGCCAGUGAAGAAAUGAACAAAGAAAAUCUGGGCCAGGCAGGCAUCAAAAGGAAUAGUCUUGCGCUCAACCGGAAAGUCUGUAAUCAUUUUAGGGGUA, the self-cleavage was 0.82. With GUUAACGGUCAUAGGCCAUGGAAACUAGGAGCACCAUUUCGCUGCCAGUGAAGAAAUGAACAAAGAAAAUCUGGGCCAGGCAGGCAUCAAAGGAAAUAGUCUUGCGCACAACCAGCAAGUCUGUAAUCAUUUUAAGGGUA the figure was 0.01; with GUUAACGGUCAUAGGCCAUGGAAACUAGGAGCACCAUUUCGCUGCCAGUGAAGAAAUGAACAAAGAAAAUCUGGGCCAGGCAGGCAUCAAAAGUAAUAGUCUUGCGCUCAACCAGAAAGUCCGUAAUCGUUUUAAGGGUA, 0.74. With GUUAACGGUCAUAGGCCAUGGAAACUAGGAGCACCAUUUCGCUGCCAGUGAAGAAAUGAACAAAGAAAAUCUGGGCCAGGCAGGCAUCAAAAGGAAUAGCCUUGCGCUCAACCAGAAAGUCUGUAAUCAUUUUAAGGGUU the figure was 1.75; with GUUAACGGUCAUAGGCCAUGGAAACUAGGAGCACCAUUUCGCUGCCAGUGAAGAAAUGAACAAAGAAAAUCUGGGCCAGGCAGGCAUCAAAAGGAAUAGCCUAGCGCUCAACCAGAAAGUCUGUAAUCAUUUUAAGGGUA, 1.76. As for GUUAACGGUCAUAGGCCAUGGAAACUAGGAGCACCAUUUCGCUGCCAGUGAAGAAAUGAACAAAGAAAAUCUGGGCCAGGCAGGCAUCAAAAGAGAUAGUCUUGCGCUCGACCAGGAAGUCUGUAAUCAUUUUAAGGGUA, the figure is 0.07.

These data come from the RNAGym collection of RNA variant scans (doi:10.7554/elife.90254).
